Drawing on article PMC5995542 (2018), this text covers koff for one molecule.

Assay [1] addresses T1, RF3-Cy5 (release factor RF3, single-cysteine variant RF3(L233C) labelled with Cy5) (E. coli, UniProt P0A7I4, L233C, Cy5 on the single cysteine C233). In words: FRET; PostHC, GDPNP, saturating RF1 (1 uM).
Assay [2] has as its target T1, RF3-Cy5 (release factor RF3, …). The assay can be described thus: FRET; PostHC*, GDPNP, without RF1.
Assay [3] deals with RF2-Cy5 (release factor RF2, single-cysteine variant RF2(C273) labelled with Cy5) (E. coli K12, UniProt P07012 1-365, T246A, Cy5 (maleimide) on the single cysteine C273; methylated in vitro (residue not given)). In words: FRET; PostHC.
Assay [4] deals with RF2(GAQ)-Cy5 (catalytically impaired RF2(G251A), Cy5-labelled) (E. coli K12, UniProt P07012 1-365, T246A | G251A, Cy5 (maleimide) on the single cysteine; methylated in vitro (residue not given)). In words: FRET; PostHC* (peptide released by puromycin).

B1: E. coli 70S ribosome termination complex labelled with Cy3 at protein L11 (PreHC, PostHC* or PostHC) (complex)
chain: not shown
modifications: Cy3 (position not given)
The term koff denotes the first-order rate constant of dissociation. As for B1, the koff amounted to 2.5 s⁻¹ in assay [1], 0.3 s⁻¹ in assay [2], 0.8 s⁻¹ in assay [3] and 0.8 s⁻¹ in assay [4].
